In article PMC9911399, “Two distinct binding modes provide the RNA-binding protein RbFox with extraordinary sequence specificity”:
Substitutions are numbered along the chain they refer to; changes in the protein carry UniProt numbers. The list shows a part of the results.

B1: GCUCUAA (DNA:RNA)
RNA: GGGAGACCGGAAUUCAGAUUGUCCGCUCUAAUUAAAUCCCGUCGUAGCCACCA
DNA 1: CAATCTGAATTCCGGTCTCCC
DNA 2: TGGTGGCTACGACGGGATT
B2: UUUUCAU (DNA:RNA)
RNA: B1 RNA with G25U, C26U, C28U, U29C, A31U
DNA 1: CAATCTGAATTCCGGTCTCCC
DNA 2: TGGTGGCTACGACGGGATT
B3: CUCGCUG (DNA:RNA)
RNA: GGGAGACCGGAAUUCAGAUUGUCCCUCGCUGUUAAAUCCCGUCGUAGCCACCA
DNA 1: CAATCTGAATTCCGGTCTCCC
DNA 2: TGGTGGCTACGACGGGATT
B4: GAUUCCA (DNA:RNA)
RNA: B1 RNA with C26A, C28U, U29C, A30C
DNA 1: CAATCTGAATTCCGGTCTCCC
DNA 2: TGGTGGCTACGACGGGATT
B5: UCGGGAC (DNA:RNA)
RNA: B1 RNA with G25U, U27G, C28G, U29G, A31C
DNA 1: CAATCTGAATTCCGGTCTCCC
DNA 2: TGGTGGCTACGACGGGATT
B6: CUCGCAU (DNA:RNA)
RNA: B3 RNA with U30A, G31U
DNA 1: CAATCTGAATTCCGGTCTCCC
DNA 2: TGGTGGCTACGACGGGATT
B7: UCUUUAG (DNA:RNA)
RNA: B1 RNA with G25U, C28U, A31G
DNA 1: CAATCTGAATTCCGGTCTCCC
DNA 2: TGGTGGCTACGACGGGATT
B8: AUCUUAA (DNA:RNA)
RNA: B1 RNA with G25A, C26U, U27C, C28U
DNA 1: CAATCTGAATTCCGGTCTCCC
DNA 2: TGGTGGCTACGACGGGATT
B9: UCCUACA (DNA:RNA)
RNA: B1 RNA with G25U, U27C, C28U, U29A, A30C
DNA 1: CAATCTGAATTCCGGTCTCCC
DNA 2: TGGTGGCTACGACGGGATT
B10: UACUGAA (DNA:RNA)
RNA: B1 RNA with G25U, C26A, U27C, C28U, U29G
DNA 1: CAATCTGAATTCCGGTCTCCC
DNA 2: TGGTGGCTACGACGGGATT
B11: CGAUAAA (DNA:RNA)
RNA: B1 RNA with G25C, C26G, U27A, C28U, U29A
DNA 1: CAATCTGAATTCCGGTCTCCC
DNA 2: TGGTGGCTACGACGGGATT
B12: CAGUUAA (DNA:RNA)
RNA: B1 RNA with G25C, C26A, U27G, C28U
DNA 1: CAATCTGAATTCCGGTCTCCC
DNA 2: TGGTGGCTACGACGGGATT
B13: CACUAGU (DNA:RNA)
RNA: B3 RNA with U26A, G28U, C29A, U30G, G31U
DNA 1: CAATCTGAATTCCGGTCTCCC
DNA 2: TGGTGGCTACGACGGGATT
B14: GGACGCG (DNA:RNA)
RNA: B1 RNA with C26G, U27A, U29G, A30C, A31G
DNA 1: CAATCTGAATTCCGGTCTCCC
DNA 2: TGGTGGCTACGACGGGATT
B15: AAUCGAU (DNA:RNA)
RNA: B1 RNA with G25A, C26A, U29G, A31U
DNA 1: CAATCTGAATTCCGGTCTCCC
DNA 2: TGGTGGCTACGACGGGATT
B16: GCGCGCG (DNA:RNA)
RNA: B1 RNA with U27G, U29G, A30C, A31G
DNA 1: CAATCTGAATTCCGGTCTCCC
DNA 2: TGGTGGCTACGACGGGATT
B17: CCUUUGU (DNA:RNA)
RNA: B1 RNA with G25C, C28U, A30G, A31U
DNA 1: CAATCTGAATTCCGGTCTCCC
DNA 2: TGGTGGCTACGACGGGATT
B18: UAGAGGC (DNA:RNA)
RNA: GGGAGACCGGAAUUCAGAUUGUCCUAGAGGCUUAAAUCCCGUCGUAGCCACCA
DNA 1: CAATCTGAATTCCGGTCTCCC
DNA 2: TGGTGGCTACGACGGGATT
B19: CCACUAA (DNA:RNA)
RNA: B1 RNA with G25C, U27A
DNA 1: CAATCTGAATTCCGGTCTCCC
DNA 2: TGGTGGCTACGACGGGATT
B20: UGAUAAA (DNA:RNA)
RNA: B1 RNA with G25U, C26G, U27A, C28U, U29A
DNA 1: CAATCTGAATTCCGGTCTCCC
DNA 2: TGGTGGCTACGACGGGATT

biological target: T1, RBFOX1 RRM RbFoxmut (Fox-RRM*) (Homo sapiens, UniProt Q9NWB1 109-208, R118D;E147R;N151S;E152T); assay: EMSA; HiTS-Eq, 1 nM pool, 10 min; buffer printed only for the single-RNA assays: 10 mM Tris pH 7.5, 150 mM NaCl, 3.4 mM EDTA, 0.001% NP-40, 30 C; conditions: tags: His6 N-terminal (pET28a); label: 5' 32P
T1 sequence: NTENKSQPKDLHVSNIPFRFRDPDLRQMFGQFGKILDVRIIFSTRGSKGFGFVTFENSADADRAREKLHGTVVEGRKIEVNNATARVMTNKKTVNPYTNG
Summary of the method: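 Relative association constants, normalised to the cognate motif, were derived by comparing read counts of each RNA species with those of the control reaction. The RNA sequenced was the free fraction, separated by 8% native PAGE after a 10 min equilibration in 50 µL of 1 nM 5′-radiolabelled RNA (7 randomized nucleotides) with increasing concentrations of purified wild-type or mutant RbFox RRM.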

Binder	binding signal
B1	0.0761 KA relative to UGCAUGU
B2	0.106 KA relative to UGCAUGU
B3	0.108 KA relative to UGCAUGU
B4	0.0705 KA relative to UGCAUGU
B5	0.0751 KA relative to UGCAUGU
B6	0.121 KA relative to UGCAUGU
B7	0.135 KA relative to UGCAUGU
B8	0.132 KA relative to UGCAUGU
B9	0.0772 KA relative to UGCAUGU
B10	0.0753 KA relative to UGCAUGU
B11	0.0781 KA relative to UGCAUGU
B12	0.127 KA relative to UGCAUGU
B13	0.108 KA relative to UGCAUGU
B14	0.119 KA relative to UGCAUGU
B15	0.0717 KA relative to UGCAUGU
B16	0.149 KA relative to UGCAUGU
B17	0.126 KA relative to UGCAUGU
B18	0.0881 KA relative to UGCAUGU
B19	0.103 KA relative to UGCAUGU
B20	0.0793 KA relative to UGCAUGU
